{"source": "the supplement of paper PMC12423691", "binders": {"B1": {"name": "ZNF35, P13682 (protein)", "chain": "MTAELREAMALAPWGPVKVKKEEEEEENFPGQASSQQVHSENIKVWAPVQGLQTGLDGSEEEEKGQNISWDMAVVLKATQEAPAASTLGSYSLPGTLAKSEILETHGTMNFLGAETKNLQLLVPKTEICEEAEKPLIISERIQKADPQGPELGEACEKGNMLKRQRIKREKKDFRQVIVNDCHLPESFKEEENQKCKKSGGKYSLNSGAVKNPKTQLGQKPFTCSVCGKGFSQSANLVVHQRIHTGEKPFECHECGKAFIQSANLVVHQRIHTGQKPYVCSKCGKAFTQSSNLTVHQKIHSLEKTFKCNECEKAFSYSSQLARHQKVHITEKCYECNECGKTFTRSSNLIVHQRIHTGEKPFACNDCGKAFTQSANLIVHQRSHTGEKPYECKECGKAFSCFSHLIVHQRIHTAEKPYDCSECGKAFSQLSCLIVHQRIHSGDLPYVCNECGKAFTCSSYLLIHQRIHNGEKPYTCNECGKAFRQRSSLTVHQRTHTGEKPYECEKCGAAFISNSHLMRHHRTHLVE"}, "B2": {"name": "MEIS1, O00470 (protein)", "chain": "MAQRYDDLPHYGGMDGVGIPSTMYGDPHAARSMQPVHHLNHGPPLHSHQYPHTAHTNAMAPSMGSSVNDALKRDKDAIYGHPLFPLLALIFEKCELATCTPREPGVAGGDVCSSESFNEDIAVFAKQIRAEKPLFSSNPELDNLMIQAIQVLRFHLLELEKVHELCDNFCHRYISCLKGKMPIDLVIDDREGGSKSDSEDITRSANLTDQPSWNRDHDDTASTRSGGTPGPSSGGHTSHSGDNSSEQGDGLDNSVASPSTGDDDDPDKDKKRHKKRGIFPKVATNIMRAWLFQHLTHPYPSEEQKKQLAQDTGLTILQVNNWFINARRRIVQPMIDQSNRAVSQGTPYNPDGQPMGGFVMDGQQHMGIRAPGPMSGMGMNMGMEGQWHYM"}, "B3": {"name": "IRF1, P10914 (protein)", "chain": "MPITRMRMRPWLEMQINSNQIPGLIWINKEEMIFQIPWKHAAKHGWDINKDACLFRSWAIHTGRYKAGEKEPDPKTWKANFRCAMNSLPDIEEVKDQSRNKGSSAVRVYRMLPPLTKNQRKERKSKSSRDAKSKAKRKSCGDSSPDTFSDGLSSSTLPDDHSSYTVPGYMQDLEVEQALTPALSPCAVSSTLPDWHIPVEVVPDSTSDLYNFQVSPMPSTSEATTDEDEEGKLPEDIMKLLEQSEWQPTNVDGKGYLLNEPGVQPTSVYGDFSCKEEPEIDSPGGDIGLSLQRVFTDLKNMDATWLDSLLTPVRLPSIQAIPCAP"}, "B4": {"name": "ZNF451, Q9Y4E5 (protein)", "chain": "MGDPGSEIIESVPPAGPEASESTTDENEDDIQFVSEGPLRPVLEYIDLVSSDDEEPSTSYTDENIKRKDHIDYQKDKVALTLARLARHVEVEKQQKEEKNRAFREKIDFQHAHGLQELEFIRGHSDTEAARLCVDQWLKMPGLKTGTINCGTKSSFRRGGHTWVSGKPILCPIMHCNKEFDNGHLLLGHLKRFDHSPCDPTITLHGPFFSSFACVVCYKKFVTQQQYRDHLFDKEATDDGHNNNLLPQIIQCFACPNCFLLFSRKEECSKHMSGKNHFHQSFKLGDNKGIAHPISFPSFAKKLLISLCKDVPFQVKCVACHKTLRSHMELTAHFRVHCRNAGPVAVAEKSITQVAEKFILRGYCPDCNQVFVDETSTQNHKQNSGHKVRVINSVEESVLLYCHSSEGNKDPSSDLHLLLDQSKFSSLKRTMSIKESSSLECIAIPKKKMNLKDKSHEGVACVQKEKSVVKTWFCECNQRFPSEDAVEKHVFSANTMGYKCVVCGKVCDDSGVIRLHMSRIHGGAHLNNFLFWCRTCKKELTRKDTIMAHVTEFHNGHRYFYEMDEVEGETLPSSSTTLDNLTANKPSSAITVIDHSPANSSPRGKWQCRICEDMFDSQEYVKQHCMSLASHKFHRYSCAHCRKPFHKIETLYRHCQDEHDNEIKIKYFCGLCDLIFNVEEAFLSHYEEHHSIDYVFVSEKTETSIKTEDDFPVIETSNQLTCGCRESYICKVNRKEDYSRCLQIMLDKGKLWFRCSLCSATAQNLTDMNTHIHQVHKEKSDEEEQQYVIKCGTCTKAFHDPESAQQHFHRKHCFLQKPSVAHFGSEKSNLYKFTASASHTERKLKQAINYSKSLDMEKGVENDLSYQNIEEEIVELPDLDYLRTMTHIVFVDFDNWSNFFGHLPGHLNQGTFIWGFQGGNTNWKPPLNCKIYNYLNRIGCFFLHPRCSKRKDAADFAICMHAGRLDEQLPKQIPFTILSGDQGFLELENQFKKTQRPAHILNPHHLEGDMMCALLNSISDTTKECDSDDNMGAKNTSIGEEFISTEDVELEEAIRRSLEEM"}, "B5": {"name": "ELF3, P78545 (protein)", "chain": "MAATCEISNIFSNYFSAMYSSEDSTLASVPPAATFGADDLVLTLSNPQMSLEGTEKASWLGEQPQFWSKTQVLDWISYQVEKNKYDASAIDFSRCDMDGATLCNCALEELRLVFGPLGDQLHAQLRDLTSSSSDELSWIIELLEKDGMAFQEALDPGPFDQGSPFAQELLDDGQQASPYHPGSCGAGAPSPGSSDVSTAGTGASRSSHSSDSGGSDVDLDPTDGKLFPSDGFRDCKKGDPKHGKRKRGRPRKLSKEYWDCLEGKKSKHAPRGTHLWEFIRDILIHPELNEGLMKWENRHEGVFKFLRSEAVAQLWGQKKKNSNMTYEKLSRAMRYYYKREILERVDGRRLVYKFGKNSSGWKEEEVLQSRN"}, "B6": {"name": "CREB5, Q02930 (protein)", "chain": "MIYEESKMNLEQERPFVCSAPGCSQRFPTEDHLMIHRHKHEMTLKFPSIKTDNMLSDQTPTPTRFLKNCEEVGLFSELDCSLEHEFRKAQEEESSKRNISMHNAVGGAMTGPGTHQLSSARLPNHDTNVVIQQAMPSPQSSSVITQAPSTNRQIGPVPGSLSSLLHLHNRQRQPMPASMPGTLPNPTMPGSSAVLMPMERQMSVNSSIMGMQGPNLSNPCASPQVQPMHSEAKMRLKAALTHHPAAMSNGNMNTMGHMMEMMGSRQDQTPHHHMHSHPHQHQTLPPHHPYPHQHQHPAHHPHPQPHHQQNHPHHHSHSHLHAHPAHHQTSPHPPLHTGNQAQVSPATQQMQPTQTIQPPQPTGGRRRRVVDEDPDERRRKFLERNRAAATRCRQKRKVWVMSLEKKAEELTQTNMQLQNEVSMLKNEVAQLKQLLLTHKDCPITAMQKESQGYLSPESSPPASPVPACSQQQVIQHNTITTSSSVSEVVGSSTLSQLTTHRTDLNPIL"}, "B7": {"name": "NR1I3, Q14994 (protein)", "chain": "MASREDELRNCVVCGDQATGYHFNALTCEGCKGFFRRTVSKSIGPTCPFAGSCEVSKTQRRHCPACRLQKCLDAGMRKDMILSAEALALRRAKQAQRRAQQTPVQLSKEQEELIRTLLGAHTRHMGTMFEQFVQFRPPAHLFIHHQPLPTLAPVLPLVTHFADINTFMVLQVIKFTKDLPVFRSLPIEDQISLLKGAAVEICHIVLNTTFCLQTQNFLCGPLRYTIEDGARVSPTVGFQVEFLELLFHFHGTLRKLQLQEPEYVLLAAMALFSPDRPGVTQRDEIDQLQEEMALTLQSYIKGQQRRPRDRFLYAKLLGLLAELRSINEAYGYQIQHIQGLSAMMPLLQEICS"}, "B8": {"name": "FOS, P01100 (protein)", "chain": "MMFSGFNADYEASSSRCSSASPAGDSLSYYHSPADSFSSMGSPVNAQDFCTDLAVSSANFIPTVTAISTSPDLQWLVQPALVSSVAPSQTRAPHPFGVPAPSAGAYSRAGVVKTMTGGRAQSIGRRGKVEQLSPEEEEKRRIRRERNKMAAAKCRNRRRELTDTLQAETDQLEDEKSALQTEIANLLKEKEKLEFILAAHRPACKIPDDLGFPEEMSVASLDLTGGLPEVATPESEEAFTLPLLNDPEPKPSVEPVKSISSMELKTEPFDDFLFPASSRPSGSETARSVPDMDLSGSFYAADWEPLHSGSLGMGPMATELEPLCTPVVTCTPSCTAYTSSFVFTYPEADSFPSCAAAHRKGSSSNEPSSDSLSSPTLLAL"}, "B9": {"name": "TADA2A, O75478 (protein)", "chain": "MDRLGPFSNDPSDKPPCRGCSSYLMEPYIKCAECGPPPFFLCLQCFTRGFEYKKHQSDHTYEIMTSDFPVLDPSWTAQEEMALLEAVMDCGFGNWQDVANQMCTKTKEECEKHYMKHFINNPLFASTLLNLKQAEEAKTADTAIPFHSTDDPPRPTFDSLLSRDMAGYMPARADFIEEFDNYAEWDLRDIDFVEDDSDILHALKMAVVDIYHSRLKERQRRKKIIRDHGLINLRKFQLMERRYPKEVQDLYETMRRFARIVGPVEHDKFIESHALEFELRREIKRLQEYRTAGITNFCSARTYDHLKKTREEERLKRTMLSEVLQYIQDSSACQQWLRRQADIDSGLSPSIPMASNSGRRSAPPLNLTGLPGTEKLNEKEKELCQMVRLVPGAYLEYKSALLNECNKQGGLRLAQARALIKIDVNKTRKIYDFLIREGYITKG"}, "B10": {"name": "POU1F1, P28069 (protein)", "chain": "MSCQAFTSADTFIPLNSDASATLPLIMHHSAAECLPVSNHATNVMSTATGLHYSVPSCHYGNQPSTYGVMAGSLTPCLYKFPDHTLSHGFPPIHQPLLAEDPTAADFKQELRRKSKLVEEPIDMDSPEIRELEKFANEFKVRRIKLGYTQTNVGEALAAVHGSEFSQTTICRFENLQLSFKNACKLKAILSKWLEEAEQVGALYNEKVGANERKRKRRTTISIAAKDALERHFGEQNKPSSQEIMRMAEELNLEKEVVRVWFCNRRQREKRVKTSLNQSLFSISKEHLECR"}}, "note": "Some of the results follow. Binding of human transcription factors and regulators to the viral nucleoprotein by AlphaScreen, crude cell-free proteins, amounts not normalised, one pass. Fold of the Venus control; higher = more signal. No active / inactive call. Single-pass screen; sequences are the whole Swiss-Prot entries looked up by name."}
{"target": "nucleoprotein N of Crimean-Congo hemorrhagic fever virus", "assay": "AlphaScreen luminescence signal relative to Venus negative control (fold); higher = stronger binding to CCHFV N", "procedure": "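AlphaScreen binding of cell-free made, FLAG-GST-tagged human transcription factors and regulators (crude translation products) to biotinylated N protein; signal as fold of the FLAG-GST-Venus control. One pass.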"}
{"binder": "B1", "AlphaScreen luminescence signal": 2}
{"binder": "B2", "AlphaScreen luminescence signal": 2.33}
{"binder": "B3", "AlphaScreen luminescence signal": 4.74}
{"binder": "B4", "AlphaScreen luminescence signal": 3.26}
{"binder": "B5", "AlphaScreen luminescence signal": 2.14}
{"binder": "B6", "AlphaScreen luminescence signal": 2.05}
{"binder": "B7", "AlphaScreen luminescence signal": 2.47}
{"binder": "B8", "AlphaScreen luminescence signal": 1.86}
{"binder": "B9", "AlphaScreen luminescence signal": 1.67}
{"binder": "B10", "AlphaScreen luminescence signal": 2.56}
